Measurements published in ChEMBL document CHEMBL5308541, “MAIP: An Open-Source Tool to Enrich High-Throughput Screening Output and Identify Novel, Druglike Molecules with Antimalarial Activity” (ACS Med Chem Lett, 2023).
About 420 (8.8%) of roughly 4,800 compounds showed an effect of 50% or more. Some of the results follow.

What follows are compounds tested on Plasmodium falciparum (assay: Confirmatory screen in NF54 nanoGlo assay, in single point, at 2uM, 72h). Conditions: timepoint 72 hour.
Type: functional, Erythrocyte
In the case of `COC(=O)c1cn(CCNc2ccnc3cc(Cl)ccc23)cc2c(O)nnc1-2`, the “% Inhibition” value is reported as 95%. With `CCOc1ccc2nc(CN(CC)CC3CCN(C4CCN(C)CC4)CC3)ccc2c1` the “% Inhibition” value was 82%. `c1ccc(CN2CCC(CCNC[C@@H]3CCCN4CCCC[C@H]34)CC2)cc1` was tested, and the “% Inhibition” value was 61%. In the case of `Cc1cccc(N2CCC(NCc3cc(C)cc(CN4CCN(C)CC4)c3C)CC2)c1`, the “% Inhibition” value is reported as 61%. For `COc1ccnc(NCCCc2nc(-c3ccncc3)cs2)n1`, the “% Inhibition” value was 65%. With `Cc1ccc2[nH]cc(-c3cc(N4CCOCC4)nc(N)n3)c2c1` the “% Inhibition” value was 57%. `C[C@@H](CNC1CCN(C2CCN(C)CC2)CC1)c1cccc(Cl)c1` was tested, and the “% Inhibition” value was 98%. With `CCc1cc(Nc2ccc(N3CCOCC3)nc2)nc(-c2ccncc2)n1` the “% Inhibition” value was 49%. With `CNc1nc(N2CCN(CC(=O)NC3CCCCC3)CC2)nc2ccccc12` the “% Inhibition” value was 23%. With `COc1ccc2nc3cc(Cl)ccc3c(O)c2c1` the “% Inhibition” value was 57%. In the case of `Cc1ccc2nc(CCCNC3CCN(c4cc(C)nc(N)n4)CC3)oc2c1`, the “% Inhibition” value is reported as 29%. For `O=C(NCC1CC1)c1cc2c(OCc3ccc(Cl)cc3)cccc2[nH]1`, the “% Inhibition” value was 57%. With `CCc1oc2ccccc2c1CNC[C@H](O)c1ccc(Cl)cc1` the “% Inhibition” value was 99%. In the case of `Cc1cnccc1NCCNCc1cccc(OCCCCN2CCOCC2)c1`, the “% Inhibition” value is reported as 95%. `Cc1cc(O)c(Cl)cc1-c1ccc2nccc(N)c2c1` was tested, and the “% Inhibition” value was 90%. In the case of `O=C(Nc1cnc2c(c1)COCC2)c1cc2c(OC(F)(F)F)cccc2[nH]1`, the “% Inhibition” value is reported as 95%. With `Nc1ccnc(-c2cccc3[nH]ccc23)c1` the “% Inhibition” value was 6%. With `COc1ccc2cc(-c3cc(N)ccn3)[nH]c2c1` the “% Inhibition” value was 55%. For `Cc1ccn2cc(-c3ccc(N4CCC(NCc5cccnc5)CC4)cc3)nc2c1`, the “% Inhibition” value was 60%. In the case of `O=C1C2CCCCC2C(c2c(-c3ccccc3)[nH]c3ccccc23)N1Cc1ccccc1` (configuration not stated), the “% Inhibition” value is reported as 40%. For `Cc1nc2ccc(CNC3CCN(c4ccc(F)c(F)c4)CC3)cc2[nH]1`, the “% Inhibition” value was 56%. For `CCN(C)CCNc1cc(C)nc(C)n1`, the “% Inhibition” value was 19%. For `CCNc1cc(C)nc(NCCNC(=O)Nc2cc(F)cc(F)c2)n1`, the “% Inhibition” value was 76%. With `Cc1cc(NC[C@H](O)COc2ccc(F)cc2)nc2ccccc12` the “% Inhibition” value was 76%. `O=C(CC1CCNCC1F)Nc1ccc(Oc2ccnc3ccccc23)cc1` (configuration not stated) was tested, and the “% Inhibition” value was 14%. With `c1ccc(CCC23CN(Cc4ccccn4)CC2CN(Cc2ccns2)C3)cc1` (configuration not stated) the “% Inhibition” value was 88%. With `COCCNc1nc(N[C@@H](C)c2ccccc2)c2ccccc2n1` the “% Inhibition” value was 63%. For `Cc1ccc2[nH]c(CNC[C@@H](CO)C3CCC3)cc2c1C`, the “% Inhibition” value was 65%. With `O=C(NCCN1CCCCC1)c1cccc(-c2cnc3ccc(F)cn23)c1` the “% Inhibition” value was 26%. With `CCOc1cccc(N2CCN(C(=O)c3cc(-c4ccc(F)cc4)[nH]n3)CC2)n1` the “% Inhibition” value was 32%. `Cc1cccc(Nc2ccnc(Nc3ccc(N4CCN(C)CC4)cc3)n2)c1` was tested, and the “% Inhibition” value was 93%. With `COc1ccc(-c2cncc(C(=O)NCC3CCN(CCN(C)C)CC3)c2)cc1` the “% Inhibition” value was 94%. In the case of `c1ccc(-c2nc3c(c(NCCNc4ncccn4)n2)CCC3)nc1`, the “% Inhibition” value is reported as 25%. For `CCN1CCN(c2ccc(CNCc3cccc(O)c3)cc2F)CC1`, the “% Inhibition” value was 39%. For `O[C@@H](CNCc1cc2cc(Cl)c(Cl)cc2[nH]1)c1ccc(F)cc1`, the “% Inhibition” value was 79%. For `FC(F)(F)c1ccc(-c2c(-c3ccccc3)ncn2Cc2ncn[nH]2)cc1`, the “% Inhibition” value was 34%. In the case of `CN([C@@H](c1ccccc1)c1ccccc1Br)S(=O)(=O)c1c[nH]c2ncccc12`, the “% Inhibition” value is reported as 47%. With `COc1ccc(CNCc2cc3ccccc3[nH]2)cc1CN(C)C` the “% Inhibition” value was 59%. `OC1(c2ccc(Cl)cc2)CCN(C[C@@H]2CCCN3CCCC[C@H]23)CC1` was tested, and the “% Inhibition” value was 73%. `Cc1ccccc1-c1cccc(N2CCC(NCC3CCNCC3)CC2)c1` was tested, and the “% Inhibition” value was 99%. For `Cc1cc(F)ccc1N1CCC(NCCCNc2cccnc2)CC1`, the “% Inhibition” value was 18%. With `c1ccc(-c2ccnc(C3CCN(CC45CNCC4C5)CC3)n2)cc1` (configuration not stated) the “% Inhibition” value was 94%. With `O=C(CCc1nnc(-c2ccc(-c3ccccc3)cc2)o1)NC[C@@H]1CCCN2CCCC[C@H]12` the “% Inhibition” value was 56%. `CN(C)C1(CNc2nc(C(F)(F)F)nc3cc(F)ccc23)CCCCCC1` was tested, and the “% Inhibition” value was 61%. In the case of `NCC1(O)CCN(c2ccnc3cc(F)c(Cl)cc23)CC1`, the “% Inhibition” value is reported as 94%. With `Cc1cc(NC[C@H]2CN(CC(C)C)CCO2)c2ccccc2n1` the “% Inhibition” value was 26%. `CCN1CCC[C@H](CNCc2cn(-c3ccccc3)nc2C(C)C)C1` was tested, and the “% Inhibition” value was 9%. For `O=C(NCCNc1ccnc2ccncc12)c1ccc(C(F)(F)F)cc1`, the “% Inhibition” value was 27%. In the case of `N#Cc1cccc(Cl)c1N1CCC(N2CCCC2)CC1`, the “% Inhibition” value is reported as 27%. With `CN1CCN(CCOc2ccccc2CN(C)Cc2cc3cc(F)ccc3[nH]2)CC1` the “% Inhibition” value was 87%. In the case of `CN(C)Cc1cccc(CCNCc2csc(-c3ccc(C(F)(F)F)cc3)n2)c1`, the “% Inhibition” value is reported as 74%. With `Cc1ccc2c(-c3ccccc3CN3CCNCC3)cccc2n1` the “% Inhibition” value was 29%. In the case of `CCc1ccc2ncnc(NCCCN3CCN(CCO)CC3)c2c1`, the “% Inhibition” value is reported as 43%. `Cn1cncc1[C@@H]1CNC[C@H]1CNC(=O)c1ccccc1NC1CCCCC1` was tested, and the “% Inhibition” value was 79%. With `CCCC(=O)NC1COCC1Cc1ccncc1` (configuration not stated) the “% Inhibition” value was 83%. With `CN1CCN(CC2CCN(c3ccnc4ccccc34)CC2)CC1` the “% Inhibition” value was 99%. In the case of `Cc1ccccc1CN1CCC(CNc2c3c(nc4ccccc24)CCC3)CC1`, the “% Inhibition” value is reported as 95%. For `CCN1CCC[C@H](CN(C)C2CCN(c3ccc(NC(=O)c4ccc(OC)cc4)cc3)CC2)C1`, the “% Inhibition” value was -3%. In the case of `CC(CNc1nc(NCC(C)N2CCOCC2)c2cc(Cl)ccc2n1)N1CCOCC1` (configuration not stated), the “% Inhibition” value is reported as 87%. With `CN(CCCc1cc(-c2ccc(F)cc2)n[nH]1)CC1CCNCC1` the “% Inhibition” value was 17%. For `CN1CCN(CCNC2CCN3CCCC3C2)C(c2ccccc2)C1` (configuration not stated), the “% Inhibition” value was 32%. In the case of `Nc1ccc(-c2cc(OC(F)(F)F)ccc2O)cn1`, the “% Inhibition” value is reported as 11%. `O=C(NCc1ccc(OC(F)(F)F)cc1)N(CCN1CCCC1)[C@H]1CCCNC1` was tested, and the “% Inhibition” value was 27%. `O=C(NCc1ccc(N2CCNCC2)c(F)c1)c1ccc(-c2noc(C(F)(F)F)n2)cc1` was tested, and the “% Inhibition” value was 57%. `Cc1ccc2[nH]c(-c3cc4n(n3)CCN(c3ccnc(N)n3)C4)nc2c1C` was tested, and the “% Inhibition” value was 89%. `CNc1nc(N[C@H]2CCCN(Cc3ccc(Cl)cc3)C2)nc2c1CCC2` was tested, and the “% Inhibition” value was 79%. In the case of `CC1(N2CCC2)CCC(NC[C@H]2CCN(Cc3ccccc3)C2)CC1` (some centres not stated), the “% Inhibition” value is reported as 66%. In the case of `CN1C(C)(C)CC(NC(=O)c2ccc(-c3cc(-c4cccc(C(F)(F)F)c4)n[nH]3)cc2)CC1(C)C`, the “% Inhibition” value is reported as 45%. `Cc1ccccc1-c1cccc(CNCCCN2CCC[C@H](O)C2)c1` was tested, and the “% Inhibition” value was 12%. `COCCN1CC[C@H](CNC2CCN(c3ncc4ccc(F)cc4n3)CC2)C1` was tested, and the “% Inhibition” value was 59%. For `OC1CN(Cc2cnc(C3CCCCC3)nc2)CCC1Nc1ncccn1` (configuration not stated), the “% Inhibition” value was 1%. `O[C@H](COc1ccccc1CNCc1cc(-c2ccccc2)[nH]n1)CN1CCCCC1` was tested, and the “% Inhibition” value was 80%. For `CCN1CCN(C[C@@H](C)CNCc2cc(-c3ccccc3)ccc2OC)CC1`, the “% Inhibition” value was -6%. In the case of `COCCN1CC[C@H](CN(C)c2ccnc3cc(Cl)ccc23)C1`, the “% Inhibition” value is reported as 98%. In the case of `CCCc1cccc(CNC2CCN(C3CCN(C)CC3)CC2)c1`, the “% Inhibition” value is reported as 58%. `OCC1CCCN1CCCCNC1CC2(CCC2)Oc2ccccc21` (configuration not stated) was tested, and the “% Inhibition” value was 2%. For `COc1cc2nc(-c3ccc(F)c4cccnc34)nc(N)c2cc1OC`, the “% Inhibition” value was 98%. `COCCCN1CCC(Nc2ncnc3cc(C)c(C)cc23)CC1` was tested, and the “% Inhibition” value was 97%. In the case of `CN1CCC[C@H](CN2CCN(Cc3cc4n(n3)CCCNC4)CC2)C1`, the “% Inhibition” value is reported as -4%. For `COc1ccc2nc(C)cc(NCc3cccc(NC(=O)c4ccco4)c3)c2c1`, the “% Inhibition” value was 96%. In the case of `c1ccc2c(Nc3ccc4[nH]cnc4c3)c3ccccc3nc2c1`, the “% Inhibition” value is reported as 98%. For `COC(CN(Cc1nc(N)nc(Nc2ccc(C)cc2)n1)Cc1nc(N)nc(Nc2ccc(C)cc2)n1)OC`, the “% Inhibition” value was 84%. In the case of `CCN(Cc1cnn(-c2cccc(Cl)c2)c1)CC1CCN(C2CCN(C)CC2)CC1`, the “% Inhibition” value is reported as 79%. For `CC1CN(c2ccccc2NC(=O)c2ccc(-c3cnco3)cc2)CC(C)O1` (configuration not stated), the “% Inhibition” value was -6%. In the case of `CC(C)c1ccc(-c2nc(CN3CCCCC3)cc(CN3CCCCC3)c2O)cc1`, the “% Inhibition” value is reported as 93%. `Clc1cccc(N2CC[C@H](CNC3CCN(Cc4ccco4)CC3)C2)c1` was tested, and the “% Inhibition” value was 66%. In the case of `O=C(n1nnc2cc(Cl)c(Cl)cc21)C(F)(F)F`, the “% Inhibition” value is reported as 15%. For `Cc1cc(N2CCC(NCCCN3CCCc4ccccc43)CC2)nc(N)n1`, the “% Inhibition” value was 74%. `OCCCNc1nn2cc(-c3ccc(F)cc3)nc2s1` was tested, and the “% Inhibition” value was 0%. With `CN(C)C1(CNc2nc(C(F)(F)F)nc3cc4c(cc23)OCO4)CCCCCC1` the “% Inhibition” value was 49%. `O[C@H]1CCN(Cc2ccccc2CNc2cccc(-n3ccnc3)n2)C1` was tested, and the “% Inhibition” value was 94%. `Cc1cnccc1NCCNCc1cnc(N2CCCCC2)nc1` was tested, and the “% Inhibition” value was 61%. In the case of `CCN1C[C@H](Nc2nc(C)nc3sccc23)[C@@H](OC)C1`, the “% Inhibition” value is reported as 98%. With `CNc1nc(C)c(-c2ccnc(Nc3cccc(S(C)(=O)=O)c3)n2)s1` the “% Inhibition” value was 58%. In the case of `CC(NC(=O)OC(C)(C)C)C1CCN(C[C@@H]2CCCN2C(=O)OC(C)(C)C)CC1` (some centres not stated), the “% Inhibition” value is reported as 17%. With `Nc1cc(N2CCC(c3nc4cc(F)ccc4[nH]3)CC2)nc(N2CCOCC2)n1` the “% Inhibition” value was 39%. With `COc1ccc2[nH]cc(C3=CCN(c4ccc5nnc(-c6ccccc6F)n5n4)CC3)c2c1` the “% Inhibition” value was 51%. For `O=C1CN(C(=O)c2ccnc3ccccc23)CCN1Cc1ccccc1F`, the “% Inhibition” value was 53%. `FC(F)(F)c1ccc(N2CCC[C@H](NC3CCN(Cc4ccco4)CC3)C2)nc1` was tested, and the “% Inhibition” value was 21%. For `NC(=O)[C@]1(O)CCN(c2ccnc3ccc(Oc4ccccc4)cc23)C1`, the “% Inhibition” value was 29%. In the case of `Cc1ccc2nc(-c3cccc(NC(=O)c4ccc(OC(F)(F)F)c(Cl)c4)c3)[nH]c2n1`, the “% Inhibition” value is reported as 72%. For `Cc1ccc(-c2cccc3c(C(=O)NCCCN4CCC(N5CCCCC5)CC4)cc(C)nc23)cc1`, the “% Inhibition” value was 98%.
